Each structure is given as a SMILES string. Out of some 310,000 compounds screened, about 14,000 (4.5%) showed an effect of 50% or more. The effect is printed as a negative number. This is one part of the list.
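Further: peak tail current of the secondary pulse compared with the same well before compound.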

The target of this test is human ether-à-go-go-related gene (hERG) potassium channel (human, UniProt Q12809). Kind of test: primary screen, population patch clamp on CHO cells stably expressing hERG.
Chain of human ether-à-go-go-related gene (hERG) potassium channel (Q12809 whole entry, looked up): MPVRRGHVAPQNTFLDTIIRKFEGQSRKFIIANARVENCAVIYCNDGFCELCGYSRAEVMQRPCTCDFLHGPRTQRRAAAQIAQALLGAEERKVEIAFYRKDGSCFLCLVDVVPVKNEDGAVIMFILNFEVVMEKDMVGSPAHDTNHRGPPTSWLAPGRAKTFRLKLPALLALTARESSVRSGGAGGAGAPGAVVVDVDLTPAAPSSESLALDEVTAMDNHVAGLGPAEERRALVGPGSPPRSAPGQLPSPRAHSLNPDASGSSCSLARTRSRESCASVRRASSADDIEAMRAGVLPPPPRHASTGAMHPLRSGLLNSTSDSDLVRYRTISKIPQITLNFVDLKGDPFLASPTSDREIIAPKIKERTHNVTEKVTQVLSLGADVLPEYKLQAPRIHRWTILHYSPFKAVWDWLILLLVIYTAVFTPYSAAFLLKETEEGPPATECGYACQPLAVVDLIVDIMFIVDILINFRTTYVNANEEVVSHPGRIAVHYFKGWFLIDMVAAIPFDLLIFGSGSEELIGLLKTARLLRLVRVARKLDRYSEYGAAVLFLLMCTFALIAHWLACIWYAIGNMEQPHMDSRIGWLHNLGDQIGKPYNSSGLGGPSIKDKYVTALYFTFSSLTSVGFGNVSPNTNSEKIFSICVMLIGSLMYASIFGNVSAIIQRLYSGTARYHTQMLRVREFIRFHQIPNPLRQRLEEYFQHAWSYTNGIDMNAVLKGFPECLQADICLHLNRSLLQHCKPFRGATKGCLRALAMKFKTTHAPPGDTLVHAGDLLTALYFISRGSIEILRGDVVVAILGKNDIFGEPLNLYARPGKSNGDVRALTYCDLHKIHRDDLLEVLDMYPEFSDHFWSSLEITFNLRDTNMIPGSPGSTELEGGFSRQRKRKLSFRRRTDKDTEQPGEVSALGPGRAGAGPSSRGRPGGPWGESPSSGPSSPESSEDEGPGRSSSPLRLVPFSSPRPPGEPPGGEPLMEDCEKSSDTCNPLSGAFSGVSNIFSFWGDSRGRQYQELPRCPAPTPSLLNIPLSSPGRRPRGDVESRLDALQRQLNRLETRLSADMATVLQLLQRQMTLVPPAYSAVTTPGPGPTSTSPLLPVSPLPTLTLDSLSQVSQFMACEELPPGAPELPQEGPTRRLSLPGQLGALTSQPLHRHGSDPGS
`O=C(O)CCN1C(=O)c2ccc(NC(=O)CSCc3ccccc3)cc2C1=O`: the “hERG current change (%, negative = inhibition) at 10uM” value is -7.19%.

As for `COC(=O)[C@@H]1C[C@@H](c2ccccc2)[C@H](C)C1(C)C`, the “hERG current change (%, negative = inhibition) at 10uM” value came out at 1%.

Turning to `Cc1ccc(S(=O)(=O)N2c3cc(C)ccc3OCC2C(C)(C)C)cc1` (stereo not drawn), the “hERG current change (%, negative = inhibition) at 10uM” value was found to be 2.79%.

As for `COc1ccc(Nc2nnc(SCC(=O)NC(=O)Nc3ccc4c(c3)OCCO4)s2)cc1`, the “hERG current change (%, negative = inhibition) at 10uM” value is on record as 15.7%.

`COc1ccc(N2C(=O)/C(=C/c3ccc([N+](=O)[O-])cc3)N=C2C)c(OC)c1`: the “hERG current change (%, negative = inhibition) at 10uM” value was 9.74%.

`C[C@H]1CCC[C@@H](O)CCC/C=C/c2cc(O)cc(O)c2C(=O)O1`: the “hERG current change (%, negative = inhibition) at 10uM” value came out at 2.04%.

Turning to `Cc1cc(C(=O)OCC(=O)N2c3ccccc3CC2C)c(C)o1` (stereo not drawn), the “hERG current change (%, negative = inhibition) at 10uM” value came out at 7.55%.

Consider `S=C(Nc1ccc2[nH]ccc2c1)NC1CCCCC1`, for which the “hERG current change (%, negative = inhibition) at 10uM” value worked out at 0.518%.

In the case of `CCOC(=O)C1(Cc2cccc(Cl)c2)CCCN(C(=O)c2cccc(C)n2)C1` (stereo not drawn), the “hERG current change (%, negative = inhibition) at 10uM” value is reported as -1.76%.

Turning to `C/C(=C\C(=O)O)C12CC3CC(CC(C3)C1)C2`, the “hERG current change (%, negative = inhibition) at 10uM” value is reported as 6.61%.

Consider `O.O=C(NC12CC3CC(CC(C3)C1)C2)c1cncc(O)c1`, for which the “hERG current change (%, negative = inhibition) at 10uM” value turned out to be 22.4%.

For the compound `COc1ccc(C(=O)Nc2cc(C)c(NC(=O)c3ccccc3OC)cn2)cc1`, the “hERG current change (%, negative = inhibition) at 10uM” value is -6.52%.

As to `COC1=CCC2([N+](=O)[O-])CN(C)CC1([N+](=O)[O-])C2` (stereo not drawn), the “hERG current change (%, negative = inhibition) at 10uM” value stood at 10.3%.

For `CCN(CC)S(=O)(=O)c1ccc2c(c1)nc(SC(C)C(=O)NCC1CCCO1)n2CC` (stereo not drawn), the “hERG current change (%, negative = inhibition) at 10uM” value is -1.12%.

`Cc1cc(C(=O)Nc2ccc(Cl)cc2)on1`: the “hERG current change (%, negative = inhibition) at 10uM” value stood at 39.9%.

`O=C(NCCC1=CCCCC1)C(=O)NCc1ccccc1`: the “hERG current change (%, negative = inhibition) at 10uM” value was 9.56%.

As to `Cc1nonc1OC(C)CNCCNc1ccc([N+](=O)[O-])cc1.Cl` (stereo not drawn), the “hERG current change (%, negative = inhibition) at 10uM” value was -55.2%.

As for `COc1ccc(CNS(=O)(=O)c2ccc3c(c2)NC(=O)CS3)cc1`, the “hERG current change (%, negative = inhibition) at 10uM” value is recorded as -9.78%.

For the compound `CCOc1ccccc1C(=O)n1nc(C)cc1C`, the “hERG current change (%, negative = inhibition) at 10uM” value was 15.6%.

For the compound `CCCOc1ccccc1C1NC(=O)NC(C)=C1C(=O)OCc1ccccc1` (stereo not drawn), the “hERG current change (%, negative = inhibition) at 10uM” value amounted to 6.23%.

`Cc1ccc(S(=O)(=O)N(CC(=O)N/N=C\c2cccs2)c2cccc3cccnc23)cc1`: the “hERG current change (%, negative = inhibition) at 10uM” value is listed as -10.4%.

For the compound `CCOc1c(Nc2ccc(C(C)C)cc2)c(=O)c1=O`, the “hERG current change (%, negative = inhibition) at 10uM” value is -23.5%.

As to `CC(C)Oc1ccc(C(CC(=O)O)Cc2ccccc2)cc1` (stereo not drawn), the “hERG current change (%, negative = inhibition) at 10uM” value amounted to 19.2%.

In the case of `Cc1cc(-n2nc(C)cc2C)nc(N)n1`, the “hERG current change (%, negative = inhibition) at 10uM” value is listed as -3.91%.

Regarding `COc1ccc(NC(=O)CCS(=O)(=O)c2ccc3c(c2)oc(=O)n3C)cc1`, the “hERG current change (%, negative = inhibition) at 10uM” value is 30.3%.

Consider `Cc1csc(NC(=O)c2cccc(S(=O)(=O)N3CCN(C)CC3)c2)n1`, for which the “hERG current change (%, negative = inhibition) at 10uM” value is -1.48%.

As to `O=C1NCCNC(=O)c2ccccc2OCCOc2ccccc21`, the “hERG current change (%, negative = inhibition) at 10uM” value was -6.78%.

Take `COC(=O)C(C)NC(=O)c1ccc(C(C)(C)C)cc1` (stereo not drawn): the “hERG current change (%, negative = inhibition) at 10uM” value is given as -3.6%.

Turning to `Cc1cccc(NC(=O)CSc2nc3c(c(=O)[nH]2)CCCC3)c1C`, the “hERG current change (%, negative = inhibition) at 10uM” value was -16%.

On to `CCOc1ccc(S(=O)(=O)N(CCO)CCO)cc1-c1nc2c(C(C)(C)C)nn(C)c2c(=O)[nH]1`, for which the “hERG current change (%, negative = inhibition) at 10uM” value is -11.7%.

For the compound `O=C(NCc1ccncc1)c1ccc(NS(=O)(=O)c2ccc(F)cc2)cc1`, the “hERG current change (%, negative = inhibition) at 10uM” value was -4.87%.

Take `O=C(c1cc(Cl)cc(Cl)c1)N1CCOCC1`: the “hERG current change (%, negative = inhibition) at 10uM” value was 12.2%.

For `CSc1ccccc1NC(=O)c1ccccn1`, the “hERG current change (%, negative = inhibition) at 10uM” value is reported as -6.11%.

On to `COc1cc(C(=O)N2CCN(S(=O)(=O)c3cccs3)CC2)cc(OC)c1C`, for which the “hERG current change (%, negative = inhibition) at 10uM” value is -12.1%.

`CCOC(=O)C1CCN(Cc2c(F)cccc2Cl)CC1`: the “hERG current change (%, negative = inhibition) at 10uM” value is on record as -13.7%.

On to `COc1ccc(NC(=O)CN(C)C(=O)c2cc(-c3ccncc3)nc3ccccc23)cc1`, for which the “hERG current change (%, negative = inhibition) at 10uM” value was -41.6%.

Consider `CCN(C(=O)COC(=O)CSc1ccc(C)c(C)c1)C1CCS(=O)(=O)C1` (stereo not drawn), for which the “hERG current change (%, negative = inhibition) at 10uM” value is listed as -49.8%.

With `Cc1nn(CC(=O)Nc2ccccn2)c(C)c1Br`, the “hERG current change (%, negative = inhibition) at 10uM” value came out at 15.3%.

Regarding `Cc1sc(NC(=S)NC(=O)c2cccs2)nc1-c1ccc(CC(C)C)cc1`, the “hERG current change (%, negative = inhibition) at 10uM” value is recorded as 6.05%.

For `O=C(O)Cc1sc(Nc2cccc3ccccc23)nc1-c1ccccc1`, the “hERG current change (%, negative = inhibition) at 10uM” value was found to be 7.09%.

In the case of `Cc1ccc(C(=O)Nc2cccc(C(F)(F)F)c2)cc1NC(=O)c1ccno1`, the “hERG current change (%, negative = inhibition) at 10uM” value is recorded as -67%.

Turning to `CCCCNC(=O)CCCn1c(=O)[nH]c2ccc(Br)cc2c1=O`, the “hERG current change (%, negative = inhibition) at 10uM” value is given as -12%.

As for `Cc1cc2nnc(SCC(=O)N3CCCCC3)n2c(N)n1`, the “hERG current change (%, negative = inhibition) at 10uM” value turned out to be 11.7%.

In the case of `COc1cccc2cc(C(=O)C3=C(O)C(=O)N(CCN4CCOCC4)C3c3ccc(Cl)cc3)oc12` (stereo not drawn), the “hERG current change (%, negative = inhibition) at 10uM” value is 13.6%.

In the case of `COc1ccc(N2CCN(C(=O)C(CCSC)N=C3NS(=O)(=O)c4ccccc43)CC2)cc1` (stereo not drawn), the “hERG current change (%, negative = inhibition) at 10uM” value is recorded as -17.4%.

Source of the values: article PMC4336329 (PLoS ONE, 2015).
